These results are taken from patent US10532977B2, “Small molecule inhibitors of protein tyrosine phosphatases and uses thereof” (Indiana University Research and Technology Corporation, priority 2015, dated 2020).

A value given as a limit tells only on which side of the number the result lay.

The test system of the assay is panel of PTPs. Conditions: for selectivity for SHP2 against all PTPs examined: cefsulodin: with the sole exception of SHP1.

For the compound `Cc1c(Br)cc(NC(=O)CS(=O)(=O)O)cc1Br`, the “activity against mPTPB or a panel of human PTPs below 3 μM” value was “no significant activity”.
In the case of `NC(=O)c1cc[n+](CC2=C(C(=O)O)N3C(=O)[C@@H](NC(=O)[C@@H](c4ccccc4)S(=O)(=O)[O-])[C@H]3SC2)cc1` [Cefsulodin], the “selectivity for SHP2 against all PTPs examined” value is recorded as “greater than 10 fold”.
The same measure, in the same setting: as for `O=C(Nc1ccc(I)cc1)C(=O)Nc1ccc(NC(=O)C(c2ccccc2)S(=O)(=O)O)cc1` (centres unmarked) [Compound 2, 2-((4-(2-((4-iodophenyl)amino)-2-oxoacetamido)phenyl)amino)-2-oxo-1-phenylethanesulfonic acid], the entry is “at least 4 fold”; as for `O=C(Nc1ccc(NC(=O)C(c2ccccc2)S(=O)(=O)O)cc1)C(=O)Nc1cc(-c2ccc(Br)cc2)n[nH]1` (centres unmarked) [Compound 4, 2-((4-(2-((3-(4-bromophenyl)-1H-pyrazol-5-yl)amino)-2-oxoacetamido)phenyl)amino)-2-oxo-1-phenylethanesulfonic acid], at least 8 fold.
`O=C(Nc1nnc(-c2ccccc2)s1)C(c1ccccc1)S(=O)(=O)O` (centres unmarked) [Compound L319M73-2]: under “ratio of IC50”, the “selectivity for Laforin over other PTPs” value turned out to be 100 fold.
